# The other results are listed elsewhere or left out.
# B1: LgFlo1 (Saccharomyces pastorianus), B3IUA8 (protein)
# chain: SGSTQACLPVGSRKNGMNVNFYKYSLQDSTTYSDPQYMAYKYSDTKKLGSVSGQTHLSIYYGPNTAFWNTASWSSDLFGFYTTPTNVTVEMTGYFLPPQTGSYTFKFATVDDSAILSVGGSIAFECCAQEQPPITSTDFTINGIKPWDAATPTDIKGSTYMYAGYYYPIKIVYSNAKALARLPVSVVLPDGTEVNDDFEGYVYSFDDDLSQSNCTIPDPSKHTTS
# Key:
# Assay in all cases: glycan array binding signal (z-score within array); higher = stronger binding
# Conditions in all cases: glycan notation: IUPAC condensed, linker removed
# Gal6S(b1-4)Glc = molecular target: Gal6S(b1-4)Glc
# In short: (§1)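 Glycan array data came from 3228 arrays in the Consortium for Functional Glycomics database, and only arrays with an available protein sequence were kept. Glycan names were put into IUPAC-condensed notation, and columns mapping to the same glycan were averaged. The binding signal is a within-array Z-score, averaged across arrays of one protein sequence run at different concentrations or buffers and across linkers. A negative Z-score can be read as non-binding.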
# Gal6S(b1-4)Glc6S = molecular target: Gal6S(b1-4)Glc6S
# In short: as §1
# Gal6S(b1-4)GlcNAc = molecular target: Gal6S(b1-4)GlcNAc
# In short: as §1
# Gal6S(b1-4)GlcNAc6S = molecular target: Gal6S(b1-4)GlcNAc6S
# In short: as §1
# GalNAc(a1-3)Gal = molecular target: GalNAc(a1-3)Gal
# In short: as §1
# GalNAc(a1-3)GalNAc = molecular target: GalNAc(a1-3)GalNAc
# In short: as §1
# [1] = molecular target: GalNAc(a1-3)GalNAc(b1-3)Gal(a1-4)Gal(b1-4)Glc
# In short: as §1
# [2] = molecular target: GalNAc(a1-3)GalNAc(b1-3)Gal(a1-4)Gal(b1-4)GlcNAc
# In short: as §1
# GalNAc(b1-3)Gal = molecular target: GalNAc(b1-3)Gal
# In short: as §1
# [3] = molecular target: GalNAc(b1-3)Gal(a1-4)Gal(b1-4)GlcNAc
# In short: as §1
# [4] = molecular target: GalNAc(b1-3)Gal(a1-4)Gal(b1-4)GlcNAc(b1-3)Gal(b1-4)Glc
# In short: as §1
# [5] = molecular target: GalNAc(b1-3)Gal(a1-6)Gal(b1-4)Glc
# In short: as §1
# GalNAc(b1-3)GalNAc = molecular target: GalNAc(b1-3)GalNAc
# In short: as §1
# GalNAc(b1-3)GlcNAc = molecular target: GalNAc(b1-3)GlcNAc
# In short: as §1
# GalNAc(b1-4)Gal(b1-4)Glc = molecular target: GalNAc(b1-4)Gal(b1-4)Glc
# In short: as §1
# GalNAc(b1-4)GlcNAc = molecular target: GalNAc(b1-4)GlcNAc
# In short: as §1
# [6] = molecular target: GalNAc(b1-4)GlcNAc(b1-2)Man
# In short: as §1
# [7] = molecular target: GalNAc(b1-4)GlcNAc(b1-2)Man(a1-3)[GalNAc(b1-4)GlcNAc(b1-2)Man(a1-6)]Man(b1-4)GlcNAc(b1-4)GlcNAc
# In short: as §1
# [8] = molecular target: GalNAc(b1-4)GlcNAc(b1-3)GalNAc(b1-4)GlcNAc
# In short: as §1
# GalNAc(b1-4)GlcNAc6S = molecular target: GalNAc(b1-4)GlcNAc6S
# In short: as §1
# GalNAc(b1-6)GalNAc = molecular target: GalNAc(b1-6)GalNAc
# In short: as §1
# GalNAc3S(b1-4)GlcNAc = molecular target: GalNAc3S(b1-4)GlcNAc
# In short: as §1
# GalNAc3S(b1-4)GlcNAc3S = molecular target: GalNAc3S(b1-4)GlcNAc3S
# In short: as §1
# [9] = molecular target: GalNAc3S(b1-4)[Fuc(a1-3)]GlcNAc
# In short: as §1
# GalNAc4S6S(b1-4)GlcNAc = molecular target: GalNAc4S6S(b1-4)GlcNAc
# In short: as §1
# GalNAc6S(b1-4)GlcNAc = molecular target: GalNAc6S(b1-4)GlcNAc
# In short: as §1
# Glc(a1-4)Glc = molecular target: Glc(a1-4)Glc
# In short: as §1
# [10] = molecular target: Glc(a1-4)Glc(a1-4)Glc(a1-4)Glc
# In short: as §1
# Glc(a1-6)Glc(a1-6)Glc = molecular target: Glc(a1-6)Glc(a1-6)Glc
# In short: as §1
# [11] = molecular target: Glc(a1-6)Glc(a1-6)Glc(a1-6)Glc
# In short: as §1
# Glc(b1-4)Glc = molecular target: Glc(b1-4)Glc
# In short: as §1
# Glc(b1-6)Glc = molecular target: Glc(b1-6)Glc
# In short: as §1
# GlcA(b1-3)Gal = molecular target: GlcA(b1-3)Gal
# In short: as §1
# GlcA(b1-3)GlcNAc = molecular target: GlcA(b1-3)GlcNAc
# In short: as §1
# GlcA(b1-6)Gal = molecular target: GlcA(b1-6)Gal
# In short: as §1
# [12] = molecular target: GlcA3S(b1-3)Gal(b1-4)GlcNAc(b1-2)Man
# In short: as §1
# [13] = molecular target: GlcA3S(b1-3)Gal(b1-4)GlcNAc(b1-3)Gal(b1-4)Glc
# In short: as §1
# [14] = molecular target: GlcNAc(a1-3)Gal(b1-4)GlcNAc
# In short: as §1
# [15] = molecular target: GlcNAc(a1-4)Gal(b1-3)GlcNAc
# In short: as §1
# [16] = molecular target: GlcNAc(a1-4)Gal(b1-4)GalNAc
# In short: as §1
# [17] = molecular target: GlcNAc(a1-4)Gal(b1-4)GlcNAc
# In short: as §1
# [18] = molecular target: GlcNAc(a1-4)Gal(b1-4)GlcNAc(b1-3)Gal(b1-4)Glc
# In short: as §1
# [19] = molecular target: GlcNAc(a1-4)Gal(b1-4)GlcNAc(b1-3)Gal(b1-4)GlcNAc
# In short: as §1
# [20] = molecular target: GlcNAc(a1-4)Gal(b1-4)GlcNAc(b1-3)Gal(b1-4)GlcNAc(b1-3)Gal(b1-4)GlcNAc
# In short: as §1
# [21] = molecular target: GlcNAc(a1-4)Gal(b1-4)GlcNAc(b1-3)Gal(b1-4)[Fuc(a1-3)]GlcNAc(b1-3)Gal(b1-4)[Fuc(a1-3)]GlcNAc
# In short: as §1
binder,measurement,setting,value
B1,glycan array binding signal (z-score),Gal6S(b1-4)Glc,0.098
same,glycan array binding signal (z-score),Gal6S(b1-4)Glc6S,1.01
same,glycan array binding signal (z-score),Gal6S(b1-4)GlcNAc,-0.114
same,glycan array binding signal (z-score),Gal6S(b1-4)GlcNAc6S,1.76
same,glycan array binding signal (z-score),GalNAc(a1-3)Gal,0.471
same,glycan array binding signal (z-score),GalNAc(a1-3)GalNAc,0.064
same,glycan array binding signal (z-score),[1],-0.265
same,glycan array binding signal (z-score),[2],-0.141
same,glycan array binding signal (z-score),GalNAc(b1-3)Gal,-0.14
same,glycan array binding signal (z-score),[3],-0.222
same,glycan array binding signal (z-score),[4],-0.173
same,glycan array binding signal (z-score),[5],-0.218
same,glycan array binding signal (z-score),GalNAc(b1-3)GalNAc,-0.422
same,glycan array binding signal (z-score),GalNAc(b1-3)GlcNAc,-0.426
same,glycan array binding signal (z-score),GalNAc(b1-4)Gal(b1-4)Glc,1.21
same,glycan array binding signal (z-score),GalNAc(b1-4)GlcNAc,-0.347
same,glycan array binding signal (z-score),[6],-0.405
same,glycan array binding signal (z-score),[7],-0.047
same,glycan array binding signal (z-score),[8],-0.273
same,glycan array binding signal (z-score),GalNAc(b1-4)GlcNAc6S,-0.421
same,glycan array binding signal (z-score),GalNAc(b1-6)GalNAc,-0.002
same,glycan array binding signal (z-score),GalNAc3S(b1-4)GlcNAc,-0.342
same,glycan array binding signal (z-score),GalNAc3S(b1-4)GlcNAc3S,-0.174
same,glycan array binding signal (z-score),[9],0.374
same,glycan array binding signal (z-score),GalNAc4S6S(b1-4)GlcNAc,-0.133
same,glycan array binding signal (z-score),GalNAc6S(b1-4)GlcNAc,-0.305
same,glycan array binding signal (z-score),Glc(a1-4)Glc,-0.454
same,glycan array binding signal (z-score),[10],-0.301
same,glycan array binding signal (z-score),Glc(a1-6)Glc(a1-6)Glc,-0.471
same,glycan array binding signal (z-score),[11],-0.225
same,glycan array binding signal (z-score),Glc(b1-4)Glc,-0.511
same,glycan array binding signal (z-score),Glc(b1-6)Glc,-0.033
same,glycan array binding signal (z-score),GlcA(b1-3)Gal,-0.201
same,glycan array binding signal (z-score),GlcA(b1-3)GlcNAc,-0.253
same,glycan array binding signal (z-score),GlcA(b1-6)Gal,0.596
same,glycan array binding signal (z-score),[12],-0.03
same,glycan array binding signal (z-score),[13],0.171
same,glycan array binding signal (z-score),[14],-0.343
same,glycan array binding signal (z-score),[15],-0.29
same,glycan array binding signal (z-score),[16],-0.277
same,glycan array binding signal (z-score),[17],-0.166
same,glycan array binding signal (z-score),[18],-0.25
same,glycan array binding signal (z-score),[19],-0.288
same,glycan array binding signal (z-score),[20],-0.3
same,glycan array binding signal (z-score),[21],-0.078
